Results reported in paper PMC6140323.
Numbering of substitutions follows the chain as printed. Results are given in words; binding and its absence hold for the method and conditions named. Binding seen in cells or lysates may run through a third protein. Some results given as binding are weak or reduced against the parent protein; the word gives no strength. Where a sequence is shown, tags or fusion partners need not be part of it.

Sequences of proteins named here, by UniProt entry; tags and fusion partners are left off.
UniProt P42858: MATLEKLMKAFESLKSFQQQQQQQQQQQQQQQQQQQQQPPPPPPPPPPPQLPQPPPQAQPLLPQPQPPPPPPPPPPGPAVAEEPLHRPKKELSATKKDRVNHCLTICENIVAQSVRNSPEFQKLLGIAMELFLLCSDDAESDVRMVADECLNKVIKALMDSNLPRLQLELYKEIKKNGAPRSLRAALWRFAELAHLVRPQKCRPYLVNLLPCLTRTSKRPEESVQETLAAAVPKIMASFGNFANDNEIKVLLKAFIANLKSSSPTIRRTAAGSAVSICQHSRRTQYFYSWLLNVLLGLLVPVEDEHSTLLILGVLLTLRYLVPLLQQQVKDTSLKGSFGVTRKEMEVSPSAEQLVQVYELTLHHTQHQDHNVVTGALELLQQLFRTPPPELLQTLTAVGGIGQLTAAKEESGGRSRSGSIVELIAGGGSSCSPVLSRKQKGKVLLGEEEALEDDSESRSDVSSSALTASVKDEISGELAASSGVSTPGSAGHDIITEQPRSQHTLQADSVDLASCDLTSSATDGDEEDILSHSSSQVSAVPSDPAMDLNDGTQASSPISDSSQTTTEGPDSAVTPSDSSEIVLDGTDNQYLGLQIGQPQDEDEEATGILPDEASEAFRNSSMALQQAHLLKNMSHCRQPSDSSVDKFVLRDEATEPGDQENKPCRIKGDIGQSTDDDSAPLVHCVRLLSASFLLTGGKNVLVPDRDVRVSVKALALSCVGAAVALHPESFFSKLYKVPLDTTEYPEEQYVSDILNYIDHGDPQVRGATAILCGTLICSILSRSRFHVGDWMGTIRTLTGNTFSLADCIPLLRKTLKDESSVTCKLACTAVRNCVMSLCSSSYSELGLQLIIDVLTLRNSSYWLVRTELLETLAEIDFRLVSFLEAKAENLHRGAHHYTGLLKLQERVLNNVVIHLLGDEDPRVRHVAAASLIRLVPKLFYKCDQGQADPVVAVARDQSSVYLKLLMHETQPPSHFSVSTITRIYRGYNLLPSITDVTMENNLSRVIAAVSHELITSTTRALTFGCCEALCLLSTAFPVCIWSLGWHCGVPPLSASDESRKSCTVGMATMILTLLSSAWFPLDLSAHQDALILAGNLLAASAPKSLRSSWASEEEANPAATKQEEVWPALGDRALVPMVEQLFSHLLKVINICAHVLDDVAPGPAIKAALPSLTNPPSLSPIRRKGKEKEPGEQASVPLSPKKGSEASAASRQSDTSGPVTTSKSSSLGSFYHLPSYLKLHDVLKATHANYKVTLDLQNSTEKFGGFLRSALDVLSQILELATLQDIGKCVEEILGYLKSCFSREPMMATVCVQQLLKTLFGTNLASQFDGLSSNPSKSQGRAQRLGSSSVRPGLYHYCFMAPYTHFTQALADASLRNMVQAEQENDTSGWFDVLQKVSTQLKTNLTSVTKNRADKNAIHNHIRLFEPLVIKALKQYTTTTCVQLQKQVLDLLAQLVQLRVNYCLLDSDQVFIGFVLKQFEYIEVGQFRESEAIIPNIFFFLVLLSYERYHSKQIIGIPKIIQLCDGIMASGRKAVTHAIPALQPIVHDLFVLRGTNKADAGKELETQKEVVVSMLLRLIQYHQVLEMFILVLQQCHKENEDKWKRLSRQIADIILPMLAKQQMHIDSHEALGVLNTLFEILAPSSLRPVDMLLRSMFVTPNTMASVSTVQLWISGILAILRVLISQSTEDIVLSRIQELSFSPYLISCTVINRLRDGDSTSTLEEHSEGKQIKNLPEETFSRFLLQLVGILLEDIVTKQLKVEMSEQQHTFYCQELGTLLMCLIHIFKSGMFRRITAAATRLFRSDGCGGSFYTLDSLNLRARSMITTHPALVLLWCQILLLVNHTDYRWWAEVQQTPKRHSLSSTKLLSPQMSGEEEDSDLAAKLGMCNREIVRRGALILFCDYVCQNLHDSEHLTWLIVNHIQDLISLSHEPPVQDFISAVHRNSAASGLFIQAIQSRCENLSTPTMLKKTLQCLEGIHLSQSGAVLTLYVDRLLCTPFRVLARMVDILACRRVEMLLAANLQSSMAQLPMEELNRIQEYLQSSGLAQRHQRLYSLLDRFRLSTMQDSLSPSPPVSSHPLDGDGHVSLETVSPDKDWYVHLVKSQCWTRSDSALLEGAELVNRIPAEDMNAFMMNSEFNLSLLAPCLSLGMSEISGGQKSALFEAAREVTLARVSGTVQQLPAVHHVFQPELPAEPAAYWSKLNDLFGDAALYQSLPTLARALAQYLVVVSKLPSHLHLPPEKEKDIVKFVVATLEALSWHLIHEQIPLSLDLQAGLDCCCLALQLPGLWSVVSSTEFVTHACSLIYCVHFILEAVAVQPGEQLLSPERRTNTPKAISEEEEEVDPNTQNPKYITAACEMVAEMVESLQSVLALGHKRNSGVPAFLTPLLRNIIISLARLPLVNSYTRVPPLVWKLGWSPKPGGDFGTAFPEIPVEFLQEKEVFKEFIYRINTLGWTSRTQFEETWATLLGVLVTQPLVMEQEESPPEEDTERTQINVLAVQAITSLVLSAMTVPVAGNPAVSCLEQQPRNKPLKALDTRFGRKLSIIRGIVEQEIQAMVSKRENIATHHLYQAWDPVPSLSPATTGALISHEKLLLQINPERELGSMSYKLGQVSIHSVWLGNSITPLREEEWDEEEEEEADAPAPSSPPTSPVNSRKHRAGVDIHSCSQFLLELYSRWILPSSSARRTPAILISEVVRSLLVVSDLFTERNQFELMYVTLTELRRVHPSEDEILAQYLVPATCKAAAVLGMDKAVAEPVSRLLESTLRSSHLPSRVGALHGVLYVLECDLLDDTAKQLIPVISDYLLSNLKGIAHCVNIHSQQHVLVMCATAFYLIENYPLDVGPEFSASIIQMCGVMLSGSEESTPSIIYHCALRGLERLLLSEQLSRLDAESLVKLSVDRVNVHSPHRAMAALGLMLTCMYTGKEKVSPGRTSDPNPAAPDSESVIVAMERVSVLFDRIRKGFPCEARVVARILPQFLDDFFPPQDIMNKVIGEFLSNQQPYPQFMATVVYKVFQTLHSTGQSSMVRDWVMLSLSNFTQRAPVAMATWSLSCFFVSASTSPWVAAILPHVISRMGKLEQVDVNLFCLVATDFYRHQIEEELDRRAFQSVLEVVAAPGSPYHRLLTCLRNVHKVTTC

Assays:
Assay in all cases: co-IP; GFP-nanotrap precipitation of GFP-tagged constructs from transiently transfected HEK293-T lysates (50 mM Tris-HCl pH 7.4, 0.5% NP40), 1 h at 4°C; western blot for endogenous Htt and septins
[1] = target: T1, GFP-SNX20 N-terminal region (residues 1-66) (UniProt Q7Z614)
T1 sequence: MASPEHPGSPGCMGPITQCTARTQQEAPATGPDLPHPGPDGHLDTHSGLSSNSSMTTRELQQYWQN

[2] = target: T2, GFP-SNX21 PX (residues 129-240) (human) (UniProt Q969T3)
T2 sequence: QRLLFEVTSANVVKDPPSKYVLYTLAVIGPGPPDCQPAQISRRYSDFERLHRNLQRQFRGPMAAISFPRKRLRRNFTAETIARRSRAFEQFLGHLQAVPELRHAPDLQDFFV

[3] = target: T3, GFP-SNX21 residues 53-129 (human) (UniProt Q969T3)
T3 sequence: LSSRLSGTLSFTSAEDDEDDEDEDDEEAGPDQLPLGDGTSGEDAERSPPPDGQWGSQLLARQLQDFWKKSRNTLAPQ

[4] = target: T4, GFP-SNX21(1-129) (human) (UniProt Q969T3)
T4 sequence: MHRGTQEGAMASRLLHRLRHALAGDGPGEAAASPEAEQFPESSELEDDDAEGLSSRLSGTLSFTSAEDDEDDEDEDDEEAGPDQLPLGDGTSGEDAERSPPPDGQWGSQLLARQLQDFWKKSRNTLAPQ

[5] = target: T5, GFP-SNX21(D48K, D68K) (human) (UniProt Q969T3)
T5 sequence: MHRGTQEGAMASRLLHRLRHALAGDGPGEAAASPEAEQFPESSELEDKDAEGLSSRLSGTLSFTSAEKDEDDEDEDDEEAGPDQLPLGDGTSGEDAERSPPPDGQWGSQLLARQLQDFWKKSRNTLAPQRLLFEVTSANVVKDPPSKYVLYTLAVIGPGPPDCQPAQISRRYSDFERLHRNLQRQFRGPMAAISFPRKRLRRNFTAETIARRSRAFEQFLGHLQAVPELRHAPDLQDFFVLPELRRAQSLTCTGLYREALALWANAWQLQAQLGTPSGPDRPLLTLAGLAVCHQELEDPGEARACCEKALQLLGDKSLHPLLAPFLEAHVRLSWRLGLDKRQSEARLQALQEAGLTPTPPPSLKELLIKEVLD

[6] = target: T6, GFP-SNX21(D68K) (human) (UniProt Q969T3)
T6 sequence: T5 sequence with K48D

[7] = target: T7, GFP-SNX21(Δ41-49) (human) (UniProt Q969T3)
T7 sequence: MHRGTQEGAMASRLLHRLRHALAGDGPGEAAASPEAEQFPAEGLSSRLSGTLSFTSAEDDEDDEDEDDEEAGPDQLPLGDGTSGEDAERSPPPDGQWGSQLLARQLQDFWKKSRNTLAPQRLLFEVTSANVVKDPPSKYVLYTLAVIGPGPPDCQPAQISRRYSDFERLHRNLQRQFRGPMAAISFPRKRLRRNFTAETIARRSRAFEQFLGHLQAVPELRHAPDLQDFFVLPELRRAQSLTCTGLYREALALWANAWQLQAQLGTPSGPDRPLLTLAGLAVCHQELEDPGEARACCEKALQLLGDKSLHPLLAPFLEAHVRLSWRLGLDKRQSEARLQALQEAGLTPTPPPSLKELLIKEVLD

[8] = target: T8, GFP-SNX21(Δ67-79) (human) (UniProt Q969T3)
T8 sequence: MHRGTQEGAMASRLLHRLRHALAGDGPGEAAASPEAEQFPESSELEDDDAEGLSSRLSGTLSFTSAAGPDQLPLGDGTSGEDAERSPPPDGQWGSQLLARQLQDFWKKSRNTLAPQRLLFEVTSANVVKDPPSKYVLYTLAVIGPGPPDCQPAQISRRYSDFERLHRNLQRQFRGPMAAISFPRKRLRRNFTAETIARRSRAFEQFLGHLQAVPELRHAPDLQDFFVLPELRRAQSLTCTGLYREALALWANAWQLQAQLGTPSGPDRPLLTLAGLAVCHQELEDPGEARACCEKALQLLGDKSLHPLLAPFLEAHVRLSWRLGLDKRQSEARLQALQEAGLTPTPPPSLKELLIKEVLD

- binding [1]: no binding
- binding [2]: no binding
- binding [3]: no binding
- binding [4]: binds
- binding [5]: binds
- binding [6]: binds
- binding [7]: no binding
- binding [8]: binds
Substance: huntingtin (Htt), endogenous (from UniProt P42858 1-3142)
